Measured values as given in paper PMC4336329 (PLoS ONE, 2015).
In all, about 310,000 compounds went through this assay and about 2,200 (0.71%) showed an effect of 50% or more. The effect is printed as a negative number. The list shows a part of the results.

The compounds below were run against human ether-à-go-go-related gene (hERG) potassium channel (human, UniProt Q12809) (assay: primary screen, population patch clamp on CHO cells stably expressing hERG).
human ether-à-go-go-related gene (hERG) potassium channel, sequence (Q12809 whole entry, looked up): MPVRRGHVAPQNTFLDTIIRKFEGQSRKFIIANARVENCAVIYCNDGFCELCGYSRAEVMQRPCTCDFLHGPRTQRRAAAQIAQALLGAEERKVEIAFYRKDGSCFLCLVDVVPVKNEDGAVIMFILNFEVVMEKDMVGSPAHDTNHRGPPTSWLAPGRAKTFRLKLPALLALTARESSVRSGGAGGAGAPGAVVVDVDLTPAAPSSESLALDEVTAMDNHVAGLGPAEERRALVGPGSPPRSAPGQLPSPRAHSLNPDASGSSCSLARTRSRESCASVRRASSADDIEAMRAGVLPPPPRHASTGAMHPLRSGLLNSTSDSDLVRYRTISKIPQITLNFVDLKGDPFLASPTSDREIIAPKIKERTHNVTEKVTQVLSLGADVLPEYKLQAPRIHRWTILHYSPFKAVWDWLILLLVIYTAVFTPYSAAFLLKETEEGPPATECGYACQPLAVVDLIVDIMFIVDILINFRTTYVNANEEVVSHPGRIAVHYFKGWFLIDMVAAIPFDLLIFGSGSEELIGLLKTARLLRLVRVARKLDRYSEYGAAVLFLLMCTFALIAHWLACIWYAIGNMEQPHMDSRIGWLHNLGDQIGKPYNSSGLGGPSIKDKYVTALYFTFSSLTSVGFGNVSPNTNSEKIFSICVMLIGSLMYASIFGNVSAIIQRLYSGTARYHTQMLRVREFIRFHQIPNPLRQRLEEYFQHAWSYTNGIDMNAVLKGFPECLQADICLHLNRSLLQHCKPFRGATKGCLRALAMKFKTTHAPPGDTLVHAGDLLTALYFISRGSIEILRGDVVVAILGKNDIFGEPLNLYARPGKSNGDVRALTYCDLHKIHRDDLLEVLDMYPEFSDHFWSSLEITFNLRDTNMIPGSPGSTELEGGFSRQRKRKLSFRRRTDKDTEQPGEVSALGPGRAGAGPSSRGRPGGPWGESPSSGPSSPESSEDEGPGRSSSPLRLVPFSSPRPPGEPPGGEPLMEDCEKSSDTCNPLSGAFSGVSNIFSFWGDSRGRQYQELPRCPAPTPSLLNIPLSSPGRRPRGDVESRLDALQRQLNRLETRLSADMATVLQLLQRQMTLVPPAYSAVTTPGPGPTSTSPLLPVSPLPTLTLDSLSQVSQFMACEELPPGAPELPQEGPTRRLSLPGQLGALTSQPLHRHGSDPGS

| SMILES | hERG current change (%, negative = inhibition) at 1uM |
| --- | --- |
| CN(C(=O)COC(=O)c1ccccc1Cc1ccccc1)c1c(N)n(Cc2ccccc2)c(=O)[nH]c1=O | 18.1% |
| O=C1CCSc2ccc(Cl)cc2N1Cc1ccc(Cl)cc1 | 9.72% |
| CCSc1nc(N)c2c(C)c(C)sc2n1 | -1.83% |
| CC1=C(C(=O)NCc2ccccc2)C(c2cccnc2)n2ncnc2N1 (stereo not drawn) | 8.67% |
| CCn1c(COc2ccccc2C)nnc1SCC(=O)NCc1ccccc1 | 2.58% |
| CCCCn1cnc2c(=S)nc(N)[nH]c21 | 10.8% |
| COc1ccc(C(=O)NCc2nnc(SCC(=O)NC3=NCCS3)n2C)cc1 | 5.54% |
| Cc1nc(N2CCN(c3ccccc3F)CC2)[nH]c(=O)c1C | 17.4% |
| CCN(CC)S(=O)(=O)c1ccc(C)c(NC(=O)COC(=O)C=C(C)C)c1 | 10.6% |
| O=C(CN1CCN(C(=O)c2ccco2)CC1)Nc1ccccc1-c1ccccc1 | -15.7% |
| O=C1N/C(=C\c2ccc(N3CCOCC3)c(F)c2)C(=O)N1Cc1ccccc1 | 20% |
| Cc1cc(C)cc(NC(=O)CN2CCN(c3ccccc3)CC2)c1 | 11.2% |
| CCOC(=O)Cc1csc(NS(=O)(=O)c2ccc(C(F)(F)F)cc2)n1 | 16.1% |
| O=c1c2c(-c3ccc(Cl)cc3)csc2nc2n1CCC2 | -6.3% |
| CC1CN(C(=O)CCC(=O)NCc2ccccc2)c2cc(Cl)ccc2O1 (stereo not drawn) | 0.521% |
| COc1c(Cl)cc(C(=O)Nc2ccccc2C(=O)O)cc1Cl | 15.7% |
| COc1ccccc1CNS(=O)(=O)c1ccc(-c2cc(C)no2)cc1 | 16% |
| CCOc1ccc(CCNC(=O)C2CC(=O)N(CCc3ccccc3)C2)cc1OCC (stereo not drawn) | 15.7% |
| CCC(=O)Nc1ccc2c(c1)ncn2CCc1ccccc1 | 8.64% |

| SMILES | hERG current change (%, negative = inhibition) at 1uM |
| --- | --- |
| COC(=O)N1CCN(S(=O)(=O)c2ccc(F)cc2)CC1 | 0.95% |
| O=C(Nc1ccc(F)cc1F)c1ccc2c(c1)OCCO2 | 27.6% |
| Cc1ccccc1NC(=O)CNc1ccccc1C(=O)NCc1ccco1 | 11.3% |
| CCOc1ccc(OCC)c(NC(=O)CCS(=O)(=O)c2ccc(Br)s2)c1 | 5.87% |
| CN(c1ccccc1C(=O)Nc1ccccc1C(=O)NCc1ccco1)S(C)(=O)=O | 5.47% |
| CCc1cccc(OCC(=O)Nc2ccc(C)c(S(=O)(=O)N3CCCCCC3)c2)c1 | 2.35% |
| CCOCCCN(C)C1CCN(C(=O)c2oc3ccccc3c2NC(=O)COc2ccc(F)cc2)CC1 | -85.9% |
| N#CCCn1ncn(-c2ccccc2)c1=S | 8.18% |
| Cc1ccc(NS(=O)(=O)c2ccc3c(c2)NC(=O)CO3)c(C)c1 | 17.3% |
| Cc1ccc(CNCC(O)(c2ccc(F)cc2)c2ccc(F)cc2)cc1 | 8.55% |
| Cl.OC(c1ccccc1)(c1ccccc1)C1CCCN1 (stereo not drawn) | 0.759% |
| CC(C)(C)c1csc(NC(=O)C2=COCCO2)n1 | 11.3% |
| CC1=NN(C(C#N)c2ccc(F)cc2)C(c2ccccc2)C1 (stereo not drawn) | 12% |
| CC1(C)Cc2c(sc3[nH]c(=S)[nH]c(=O)c23)CO1 | 10.4% |
| Cc1ccc(-c2csc(NC(=O)c3ccc4c(=O)n5c(nc4c3)CCCCC5)n2)cc1 | 7.87% |
| COc1cc(NC(=O)c2ccccc2-c2ccccc2)cc(OC)c1OC | 4.63% |
| COc1cccc(/C=C2\SC(=S)N(CCC(=O)NCCc3ccc(O)cc3)C2=O)c1 | 3.91% |
| Cc1ccc(NS(=O)(=O)c2cccc3nsnc23)cc1[N+](=O)[O-] | 13.9% |
| COc1ccc(NC(=O)CSc2nnc(Cc3ccccc3)c(=O)n2N)cc1 | 1.91% |

| SMILES | hERG current change (%, negative = inhibition) at 1uM |
| --- | --- |
| S=c1[nH]cc(-c2ccccc2)n1-c1cccc(Cl)c1 | 6.39% |
| Cc1nnc(N/N=C/c2ccc(O)c([N+](=O)[O-])c2)[nH]c1=O | 15.4% |
| CCOc1cccc(CNC2CN3CCC2CC3)c1.Cl (stereo not drawn) | 1.48% |
| COC(=O)c1nc(-c2ccccc2)n[nH]1 | -3.45% |
| Cc1noc(C)c1COC(=O)Cc1ccc(Br)cc1 | 11% |
| CCCC1=C(C(=O)OCC)C(c2ccc(OC)c(C)c2OC)C(C#N)=C(N)O1 (stereo not drawn) | -0.885% |
| O=C(NCN1C(=O)C2C3C=CC(C3)C2C1=O)Nc1ccccn1 (stereo not drawn) | 11.6% |
| COc1ccc(Cl)cc1Nc1nc(C)cc(=O)[nH]1 | 4.87% |
| Cc1ccc(C)c(N2N=C(C(=O)Nc3cccc(S(=O)(=O)N4CCCCC4)c3)CCC2=O)c1 | -0.476% |
| CCN(CC)C(=O)CC(c1ccc(N(C)C)cc1)c1c(OC)cc(OC)c2c(-c3ccccc3)cc(=O)oc12 (stereo not drawn) | 9.2% |
| CCOc1ccc(-n2ccnc2SCC(=O)Nc2nnc(C)s2)cc1 | 5.85% |
| CCOC(=O)C1CCN(CC(=O)Nc2c(C(=O)OC)[nH]c3cccc(C)c23)CC1 | 12.4% |
| CCOC(=O)/C=C/C(=O)OCC(=O)Nc1ccc(C)cc1 | 4.82% |
| COc1ccc(S(=O)(=O)N2CCOCC2)cc1NC(=O)CCc1c[nH]c2ccccc12 | -1.59% |
| CCC(C)[C@H](NC(=O)c1cc2cc(Cl)ccc2n1C)C(=O)N1CCC[C@H]1C(=O)O (stereo partly drawn) | 12.8% |
| CCNC(=O)C(=O)NCCC1CCCCN1S(=O)(=O)c1cccs1 (stereo not drawn) | 10% |
| Cc1cc(C)c2oc(C(=O)Nc3ccc(S(=O)(=O)N4CCCC(C)C4)cc3)cc(=O)c2c1 (stereo not drawn) | 5.41% |
| COc1cccc2c1OCC/C2=N\NC(=O)COc1ccc(C)cc1 | 13.9% |
| COc1cccc(C(=O)N(Cc2cc3cc(C)ccc3[nH]c2=O)C(C)C)c1 | 3.79% |
